Results from PubChem BioAssay AID1631 (National Center for Advancing Translational Sciences (NCATS), 2009).
About 890 (0.34%) of roughly 260,000 compounds were called active. The inconclusive results got no clear call from the source; some entries with a clear call stand among them for comparison. Calls follow the shape of the dose curve; as a rule, active = well fitted activation curve with a large enough effect; inconclusive = small, poorly fitted or top-dose-only effect; inactive = no such curve, though single readings can be large or run the other way. Potencies of inconclusive entries are left out as doubtful fits.

Molecular target: Pyruvate kinase PKM (Homo sapiens) (UniProt P14618)
Sequence of UniProt P14618 (P14618 whole entry, looked up, canonical isoform): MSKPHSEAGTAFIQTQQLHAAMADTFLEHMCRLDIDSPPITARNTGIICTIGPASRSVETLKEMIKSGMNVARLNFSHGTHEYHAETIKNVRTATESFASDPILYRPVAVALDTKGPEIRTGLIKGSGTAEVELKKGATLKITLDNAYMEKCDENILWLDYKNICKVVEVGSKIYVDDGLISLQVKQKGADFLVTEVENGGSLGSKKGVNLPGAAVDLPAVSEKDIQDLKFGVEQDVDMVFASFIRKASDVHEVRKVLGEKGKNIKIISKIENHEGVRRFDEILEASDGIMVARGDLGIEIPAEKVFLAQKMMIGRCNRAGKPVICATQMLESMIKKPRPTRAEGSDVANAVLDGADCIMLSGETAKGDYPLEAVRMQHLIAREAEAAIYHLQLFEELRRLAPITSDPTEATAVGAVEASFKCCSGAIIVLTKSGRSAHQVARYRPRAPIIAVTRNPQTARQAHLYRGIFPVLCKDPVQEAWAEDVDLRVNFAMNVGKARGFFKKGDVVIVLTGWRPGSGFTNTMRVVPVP
Assay: qHTS Assay for Activators of Human Muscle isoform 2 Pyruvate Kinase; also: nearly all actives have a fitted effect of over 55% in size
Conditions: purified PKM2, Kinase-Glo ATP luminescence; Potency: activation; activation: at 57.5 µM (top of the series), 0% is enzyme alone, no compound
How it was run: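 Purified hPK-M2 (>95% pure) converted ADP (0.1 mM final) to ATP with 0.5 mM PEP in 50 mM imidazole pH7.2, KCl, MgCl2, Tween 20, BSA; 1 h at room temperature. ATP detected by Kinase-Glo luminescence.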
% is scaled to controls: 0 for no effect and ±100 for the full control effect; potency is read from the fitted curve at half-maximal effect; tags tell the direction and shape of the fitted curve.

| SMILES | Potency | activation |
| --- | --- | --- |
| Cc1ccccc1CN1CCc2c(OCC(=O)N3CCCc4ccccc43)cccc2C1=O | inconclusive [rising, partial curve] | – |
| CC1(C)NC(=O)N(CCCCOc2ccccc2[N+](=O)[O-])C1=O | – | inactive: 2.66% |
| Cc1nnc(SCC2=C(C(=O)O)N3C(=O)C(NC(=O)Cn4nc(C)c(Cl)c4C)C3SC2)s1 (stereo unspecified) | inconclusive [rising, single point] | – |
| Cc1[nH]nc2c1C(c1ccc(-c3ccccc3C#N)o1)C(C#N)=C(N)O2 (stereo unspecified) | inconclusive [rising, single point] | – |
| CN(C)S(=O)(=O)c1ccc(Cl)c(NC(=O)CN2CCN(Cc3ccc4c(c3)OCO4)CC2)c1 | – | inactive: -6.71% |
| O=C(COC(=O)c1ccc(S(=O)(=O)Nc2ccccc2)cc1)NCc1ccco1 | inconclusive [rising, partial curve] | – |
| O=C(Cc1ccc2c(c1)OCCO2)N1CCN(S(=O)(=O)c2cccc(Cl)c2Cl)CC1 | active: 2.82 µM | – |
| CC1(C)CN(c2ccc(Br)cc2Br)C1=O | – | inactive: 0.535% |
| CC(C)Cn1c(C23CC4CC(CC(C4)C2)C3)n[nH]c1=S | – | inactive: -1.97% |
| COc1ccccc1OCCn1c(=O)n(C)c2ccccc21 | – | inactive: 0.911% |
| Clc1ccc(-c2nnc(-c3ccccc3Cl)o2)cc1 | – | inactive: -1.38% |
| COc1ccc(/C=N\NC(=O)c2ccccc2Br)cc1COc1ccc(F)cc1 | – | inactive: 7.61% |
| CC(C)(C)C(=O)Nc1ccc(-c2csnn2)cc1 | inconclusive [rising, partial curve, poor fit] | – |
| Cc1ccc(C(=O)/C=C/c2ccc(-c3ccc(C)cc3)o2)cc1 | inconclusive [rising, partial curve] | – |
| O=C(/C=C/c1ccco1)N(Cc1ccc(Cl)cc1)C1CCS(=O)(=O)C1 (stereo unspecified) | inconclusive [rising, single point] | – |
| CC1(C)Cc2c(C#N)c(N3CCN(C(=O)c4ccco4)CC3)nc(-c3ccco3)c2CS1 | inconclusive [rising, single point] | – |
| CC1(OC(=O)c2cccs2)C(=O)C=C2C=C3CCCN3C=C2C1=O (stereo unspecified) | inactive | – |
| CCO[C@H]1OC(C(=O)NC2CC2)=C[C@@H](c2csc3ccccc23)[C@@H]1CCCO | inconclusive [rising, single point] | – |
| CC(Sc1n[nH]c(N)n1)c1nc2scc(-c3cccs3)c2c(=O)[nH]1 (stereo unspecified) | inconclusive [rising, full curve, poor fit] | – |
| CC1=CC(C)(C)N2C(=O)C(=Nc3ccc(O)cc3)c3cccc1c32 | inconclusive [rising, single point] | – |
| Cc1cc2nc3c(=O)[nH]c(=O)[nH]c3nc2c([N+](=O)[O-])c1N | inconclusive [rising, full curve] | – |
| CCn1cc([N+](=O)[O-])c(C(=O)Nc2ccn(Cc3ccccc3F)n2)n1 | – | inactive: -2.89% |
| COc1cccc(NC(=O)CN(C2=NC3CS(=O)(=O)CC3S2)c2cccc(C)c2)c1 (stereo unspecified) | inconclusive [rising, single point] | – |

| SMILES | Potency | activation |
| --- | --- | --- |
| O=C(COc1ccccc1F)Nc1ccc(S(=O)(=O)Nc2nccs2)cc1 | inconclusive [rising, partial curve] | – |
| O=C(CSc1nc2ccccc2s1)N/N=C/c1cc([N+](=O)[O-])ccc1O | – | inactive: 2.36% |
| CC(=O)c1c(N2CCN(c3ccccc3)CC2)nc(=S)n(-c2ccccc2)c1C | inconclusive [rising, partial curve, poor fit] | – |
| COC(=O)c1ccc(Cn2cc(/C=C\[N+](=O)[O-])c3ccccc32)o1 | inconclusive [rising, single point] | – |
| CN1CC(=O)N(CC(=O)N2N=C(c3ccc(Cl)cc3)CC2c2ccco2)C1=O (stereo unspecified) | inconclusive [rising, single point] | – |
| O=C(O)c1ccccc1/C=N/NC(=O)c1cc(-c2ccco2)nc2ccccc12 | active: 25.1 µM | – |
| N#CC(C(=S)Nc1ccccc1)c1nc2ccccc2[nH]1 (stereo unspecified) | – | inactive: -4.59% |
| Cc1cccc(C)c1NC1=NC(=S)N(c2ccc(N(C)C)cc2)C1(C)C | inconclusive [rising, full curve, poor fit] | – |
| N#C/C(=C\Nc1ccc2cn[nH]c2c1)c1nc(-c2ccc(Cl)cc2)cs1 | – | inactive: -5.49% |
| O=C(CSc1nnc(-c2ccc(NS(=O)(=O)c3ccccc3)cc2)o1)NCC1CCCO1 (stereo unspecified) | inconclusive [rising, single point] | – |
| Cc1cc(C)c2c(N)c(-c3nc4ccccc4[nH]3)sc2n1 | inconclusive [rising, partial curve] | – |
| O=[N+]([O-])c1cccc(COc2ncnc3cc([N+](=O)[O-])ccc23)c1 | inconclusive [rising, single point] | – |
| Cc1cc(NC(=O)CSc2nc3c(C)cccc3cc2C#N)no1 | inconclusive [rising, partial curve] | – |
| O=C(O)CCCCCNC(=O)Cn1nnc2ccccc2c1=O | – | inactive: 0.665% |
| CCOC(=O)c1c(NC(=O)CC2Sc3ccc(C(F)(F)F)cc3NC2=O)sc(C)c1C (stereo unspecified) | – | inactive: 0.816% |
| COc1ccc(C2c3[nH]c4ccccc4c3CCN2Cc2cccn2-c2ncccn2)cc1C (stereo unspecified) | – | inactive: 0.225% |
| O=C1OCC2=C1C(c1ccc(F)cc1)CC(=O)N2c1ccccc1 (stereo unspecified) | – | inactive: 9.29% |
| CC1(C)CC(=O)C(C(C2=C(O)CC(C)(C)CC2=O)c2ccc(Br)s2)C(=O)C1 (stereo unspecified) | inconclusive [rising, partial curve] | – |
| O=C(NCCCCc1ccccc1)c1cc([N+](=O)[O-])cc([N+](=O)[O-])c1 | inconclusive [rising, single point] | – |
| COc1cc(SC)ccc1C(=O)Nc1cccc(C)n1 | – | inactive: 0.835% |
| COc1ccc(NC(=O)c2cc(-c3ccc(C)o3)nc3ccccc23)cc1OC | inconclusive [rising, full curve] | – |
| CCOC(=O)c1c(C)nc(C(Cl)(Cl)Cl)nc1N | inconclusive [rising, single point] | – |
| CCN(c1ccccc1)S(=O)(=O)c1ccc(C(C(=O)OC)C(=O)OC)c([N+](=O)[O-])c1 | inconclusive [rising, single point] | – |
